Results from the RNAGym collection of RNA variant scans (doi:10.1073/pnas.2313332121).
Variants at the background level are over-represented here.

B1: TPR 5TU (parent)
chain: GGAUCUUCUCGAUCUAACAAAAAAGACAAAUCUGCCACAAAGCUUGAGAGCAUCUUCGGAUGCAGAGGCGGCAGCCUUCGGUGGCGCGAUAGCGCCAACGUUCUCAACUAUGACACGCAAAACGCGUGCUCCGUUGAAUGGAGUUUAUCAUG

Variants of: B1
Experiment: polymerase ribozyme fitness, log enrichment relative to wild type (log ratio); higher = more active; in vitro selection for triplet polymerase activity
Outline: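 The heterodimeric triplet polymerase ribozyme's subunits were each mutagenized into PCR-built libraries and transcribed. Every library was selected once, in triplicate, by annealing with a biotinylated primer, the partner subunit and triplets, incubating frozen at −7 °C, gel-excising extended constructs, capturing on streptavidin beads and running RT-PCR. Input and output libraries were Illumina-sequenced, with genotypes kept only at ≥10 input reads and ≥1 read per output. Fitness, from inverse-variance-weighted replicate averages, is the base-2 logarithm of genotype enrichment over wild-type enrichment.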

Polymerase ribozyme fitness (log ratio), -1.85:
C14U G94A
U15G A47C G83C

Polymerase ribozyme fitness (log ratio), ≤ -4.2:
U15G A26U A52G G83A U102G
C14U C87G A97U G100C
A16G C76A G84U A121G A122G U146A
A16G C72U G136U U148G
A16U A26C G50C G62A
A16G A37C G46A G50C C87A G92A A138C A147U
C14U U55A A73U G94C A115G
A16U A28U G34A C35U U55G
U15A A19U G92C C125U A138C
C14U G92A C103G
U15G A23C G92C
U15A C35U U55A C96G A107U U135C
A16G A19U G48A C54A U101G C108A A137C A150C
A16G A49C G50C A150G
A16G C43U C79U C132U
A16C A19G A64U C69U G92C C99G A119U G143C
C14U A28U A52G G59A C93U A113U A147G
U15G A28G C79A G124U
C14U C18G C32G A66C C93U A98U
A16C A24U G50C U55G C85A A119U
A16G A49U G62A G92A C96A U130C
U15G C43A G58C G71A C96A U127A
U15C C35G A39U A73G G83C G100A A107G C125A G141U
A16C A30U U61A C69A C79A C96G A119G U151C
U15A A26U A49C G50A G83C C99U C116U
A16C C125U U148G
A16C A91C U101C
A16U A39C A49C C96U C125U
U15A A28C G42A C85A A91U C95U A107G C114U G143U
C14U A23U G46A C85U G88A
C14U G42C U53G C85G
A16G A17U C51G C63G A64U
A16U A91G G112C
A16U A52G U104G U134G
A16G A20U C99U U102G
C14U A22G G88A A107G U144G
A16C C18G A47U G92A U101A
U15G G81A A91C C93U A110G
U15C G84C C125U U134G A150U
C14U A29C U109C
A16G A20U C118U A137U
A16C G48U C96U A113C
C14U A22C A29G A40G C57A U77G C85G A121U C131U
A16G U31A G81A A89C C96A U104C G136U
A16U A26U A91U C116U G117C
U15C G42A A60G
A16C A39C U56A U90G A110G C132U
U15G A29U A49C C76A G84U U104G
U15A A52C G65A G117A G133U
A16U A24C G80U
A16U A19G U31A C38U G42C U44G G59U C96G
U15G A16U A41C A52C G81C G83U A106U U127A
U15A G34C U55C U77A C93G C108U
C14U A20U A24U G42A A49C C57A A60C U104G C114A A115C
A16U A52G A64U U77A C87A G143C
U15A A16G G58U C69G C85U A89U C96U C108U
U15A C54A A91U A150C
C14U A52C G83C G100A U139C
A16G A21C C27G G59A G67C U145G
U15C A66C C96U
U15G A29G G59C G84U C85A U90C C93G A115G G133U U151G

Polymerase ribozyme fitness (log ratio), -2.49:
C14U A47C G84A

Polymerase ribozyme fitness (log ratio), 0.895:
U15G A17C A40C

Polymerase ribozyme fitness (log ratio), -4.05:
C14U C54U C57U C72U G83A

Polymerase ribozyme fitness (log ratio), -1.01:
U15G U82C G94A

Polymerase ribozyme fitness (log ratio), -3.99:
A16G G48U G133U

Polymerase ribozyme fitness (log ratio), -3.93:
A16G G50A A142C

Polymerase ribozyme fitness (log ratio), -2.79:
U15C A16C C85U C118A

Polymerase ribozyme fitness (log ratio), -1.96:
U15C A40U U53A G84C

Polymerase ribozyme fitness (log ratio), -3.89:
C14U C57G C85U G152A

Polymerase ribozyme fitness (log ratio), -1.52:
U15A C57A C76U G84C

Polymerase ribozyme fitness (log ratio), -1.74:
A16C A17G C96G C118U

Polymerase ribozyme fitness (log ratio), -1.4:
U15G C57A G86U A122G

Polymerase ribozyme fitness (log ratio), -3.28:
U15G C51A C93A G124U U145A

Polymerase ribozyme fitness (log ratio), -1.65:
C14U C85U

Polymerase ribozyme fitness (log ratio), -3.15:
A16G U134A

Polymerase ribozyme fitness (log ratio), -0.987:
U15C A49G C85U U109G

Polymerase ribozyme fitness (log ratio), -1.69:
U15A C51U G86U

Polymerase ribozyme fitness (log ratio), -2.26:
U15G C132A

Polymerase ribozyme fitness (log ratio), -0.835:
U15C A21C G48C C93U U146G

Polymerase ribozyme fitness (log ratio), -4.01:
C14G U77G A97U U111C
